For this assay, the system named is 857933-349-R-J2-PDC complex spheroids, viability. Briefly: Anticancer human tumor 857933-349-R-J2-PDC patient-derived colon adenocarcinoma cell line growth inhibition [GQUAD]. The conditions noted are these: compound alone. An excerpt:
DNA G-quadruplex Stabilizer Agents in Combinations in Complex Spheroids
A high-throughput screen of multi-cell type tumor spheroids was designed to identify active combinations of DNA G-quadruplex stabilizer agents and targeted small molecules. Complex spheroids include a stromal component modeled by human endothelial cells (HUVEC) and fibroblasts modeled by human mesenchymal stem cells (MSCs). The concentration ranges selected for each drug and investigational agent were based upon clinically achievable concentrations if the clinical Cmax of the agent was known.
Compounds. The drugs and investigational agents: pidnarulex (CX-5461; NSC782164), APTO-253 (NSC789042), BRACO-19 (NSC847499), peposertib (NSC802822), ceralasertib (NSC780249), elimusertib (NSC800525), camonsertib (NSC841442), AZD-1390 (NSC803789), olaparib (NSC753686), talazoparib (NSC767125), ART-558 (NSC835418), sotorasib (NSC818433), MRTX-1133 (NSC836407), SN-38 (NSC673596), topotecan (NSC609699), etoposide (NSC141540), doxorubicin (NSC123127), gemcitabine (NSC613327), 5-fluorouracil (NSC19893), paclitaxel (NSC125973), vemurafenib (NSC761431), panobinostat (NSC761190), R-306465 (JNJ-16241199; NSC773264), adavosertib (NSC754352), TP-3654 (NSC805149), carboplatin (NSC241240), KSQ-4279 (NSC840948), and staurosporine (NSC755774) were obtained from the National Cancer Institute (NCI) Developmental Therapeutics Program Chemical Repository (34). The FDA-approved anticancer drug set is available from the NCI Developmental Therapeutics Program. […] The stock solutions were prepared in dimethyl sulfoxide (DMSO, Sigma-Aldrich, St. Louis, MO, cat. D2650) at 800-fold the tested concentration and stored at -70 degrees C prior to their use. All drugs and investigational agents were tested over a range starting from a high concentration at or near the clinical Cmax and decreasing in half-log increments. If the clinical Cmax for an agent had not been determined, the highest concentration tested was 10 microM.
2.3 Cell Culture. All cells were maintained in an incubator at 37 degrees C and 5% CO2 with 95% humidity. […]

The source holds more than one record for some entries. This is not the full list of results. There may be further records. Results that share an entry are repeated measurements in other runs, samples, wells, individuals or studies. Marks such as (2×) stand for listed records that agree.
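Note: spheroids exposed to compounds for one week before readout.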

One may read the IC50 as the concentration at which inhibition is half-maximal. Take `COc1cc(C2c3cc4c(cc3C(OC3OC5COC(C)OC5C(O)C3O)C3COC(=O)C23)OCO4)cc(OC)c1O` (stereo not drawn): the IC50 is recorded as 477 nM, 488 nM, 6.13 µM.

As to `CC1COCCN1c1cc(-c2ccnn2C)c2ccnc(-c3ccn[nH]3)c2n1` (stereo not drawn), the IC50 was 112 nM and > 10 µM (2×). The same measure for `CC1COCCN1c1cc(C2(O)CC3CCC(C2)O3)c2cnn(-c3ccn[nH]3)c2n1` (stereo not drawn): 122 nM, 178 nM, > 10 µM.

The values above are taken from PubChem BioAssay AID2060491 (Molecular Pharmacology Branch, DTP, NCI, 2025).
